According to patent US20240327509A1, “HUMAN CXCLI6 ANTIBODIES AND THE USE THEREOF” (CELLUS,INC., priority 2021, published 2024):

Columns and labels:
[1] = test system: thyroid cancer cell BHP10-3M; assay: transwell migration assay toward co-CM; assay type: cell-based; conditions: antibody 10-100 μg/mL, 6 hours, FIG. 2B
Experimental: To evaluate that blockage of CXCL16 could lead to inhibit cancer cell migration. transwell migration assay was performed. For assay, 8 μm pore-size polycarbonate membrane (Corning, NY, USA) was used. A polycarbonate membrane with a pore size of 8 μm (Corning, NY, USA) was pre-coated with gelatin, and the membrane was placed into a 24-well plate. The membrane separated each well into an upper chamber and a lower chamber. CXCL16 antibody (at 10-100 μg/mL) was preincubated in the upper and lower chamber for 0.5 hours. The upper and lower chamber were plated with thyroid cancer cell BHP10-3M (1×10^5/100 μL) and co-culture conditioned medium (0.5× co-CM), respectively.
The co-CM is the conditioned medium obtained from co-culture of BHP 10^-3M and THP-1 cells. The BHP10-3M cells were seeded on 100 mm culture dishes with 3×10^6 cells in 10 ml of RPMI1640 medium. After 24 hours incubation, THP-1 cells were seeded additionally with 6×10^6 cells. After then, 10 μL of 5 mM PMA stock solution (V1171, Promega) to 10 mL of RPMI medium to make 5 μM PMA. It induced the macrophage differentiation. After 24 hours incubation, the conditioned medium obtained from the co-culture of thyroid cancer cells and macrophages (co-CM) were collected, and it was rich in CXCL16. After 6 hours of incubation of thyroid cancer cells in the upper chamber and co-CM in the lower chamber, the lower chamber was stained with 1% crystal violet solutions and the numbers of migrated cells were counted. […] Sec FIG. 2B.

[2] = test system: CXCR6-overexpressed CHO-K1 cells; assay: transwell migration assay toward rhCXCL16; assay type: cell-based; conditions: 100 ng/mL rhCXCL16 in lower chamber, 4-5 h; FIG. 2A
Experimental: CXCR6 is a receptor for chemokine CXCL16 and cells harboring CXCR6 migrate in response to CXCL16. Therefore, to evaluate the activity of CXCL16 antibody in inhibiting cell migration induced by CXCL16 and CXCR6 interaction, transwell migration assays were performed. A polycarbonate membrane with a pore size of 8 μm (Corning, NY, USA) was pre-coated with gelatin, and the membrane was placed into a 24-well plate. The membrane separated each well into an upper chamber and a lower chamber. The upper chamber was plated with CXCR6-overexpressed CHO-K1 cells. The lower chamber was filled with media containing 100 ng/mL rhCXCL16. After 4-5 h, the lower chamber was stained with 1% crystal violet solutions and the numbers of migrated cells on the lower chamber were counted.

[3] = biological target: T1, recombinant human CXCL16 antigen (Homo sapiens, UniProt Q9H2A7); assay: protein-based ELISA on immobilized human CXCL16 antigen; assay type: binding; conditions: antibody 0.001~10 nM; versus control IgG antibody; FIG. 1A
T1 construct: purchased R&D systems 976-CX
T1 sequence (Q9H2A7 30-118 limits assumed): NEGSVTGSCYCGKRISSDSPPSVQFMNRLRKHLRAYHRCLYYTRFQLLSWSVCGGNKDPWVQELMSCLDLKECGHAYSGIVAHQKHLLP
Experimental: To further characterize the binding affinity of selected 6 of CXCL16 antibodies, the protein-based ELISA was performed. The recombinant human CXCL16 antigen (976-CX, R&D systems, USA) was immobilized onto 96-well plates and incubated for 2 hours at room temperature. Non-specific binding sites were blocked by incubating with 1% BSA in PBS overnight at 4° C. Plates were then washed with PBS. Humanized CXCL16 antibodies at various concentrations (0.001˜10 nM) were incubated with the immobilized antigen for 2 hours at room temperature. After the incubation, the plates were washed, incubated with HRP-labeled anti-human IgG antibody (W4031, Promega, USA) for 0.5 hours, and developed using the substrate solution (DY008B, R&D systems).

[4] = biological target: T2, Recombinant human CXCL16 (rhCXCL16) protein (Homo sapiens, UniProt Q9H2A7); assay: bio-light interferometry (ForteBio) binding analysis
T2 sequence (Q9H2A7 30-118): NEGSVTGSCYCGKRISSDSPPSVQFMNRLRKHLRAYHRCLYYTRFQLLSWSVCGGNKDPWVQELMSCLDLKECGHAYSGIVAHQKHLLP
Experimental: The binding characteristics of 25 CXCL16 antibodies were analyzed using the bio-light interferometry (ForteBio). All antibodies were diluted in freshly prepared running buffer. Antibodies were immobilized onto the surface of a series of biosensors using the capture methods at 0.3 μg/mL. Recombinant human CXCL16 (rhCXCL16) protein (100 nM) was passed over the surface to generate a binding response for 10 minutes. Binding data for the antibody and antigen interactions were collected at 25° C. on the biosensors. Then, the running buffer was passed for 10 minutes to dissociate them. The association constant (ka) and the dissociation constant (ka) were observed, and the equilibrium binding constant (KD) was calculated. […] R2: The value indicating how well the fit and experimental data correlate; X^2: The measure of error between the experimental data and fitted line.

Akt phosphorylation = assay: rhCXCL16-induced Akt phosphorylation in cancer cells (western blot); assay type: cell-based; conditions: 100 ng/ml rhCXCL16 30 minutes, 10 μg/mL antibody; thyroid, breast and prostate cancer cells; FIG. 3
Experimental: The CXCL16-CXCR6 interaction activates intracellular Akt signaling pathway, which promote cell migration. This experiment was designed to evaluate the ability of CXCL16 antibodies in blocking the Akt signaling induced by the CXCL16-CXCR6 interaction. Cancer cells were treated with 100 ng/ml of rhCXCL16 (976-CX, R&D systems) for 30 minutes in the presence of 10 μg/mL of humanized CXCL16 antibody (HC4LC1, HC5LC1. HC5LC2. HC5LC3. or HC5LC5) or control antibody (MAB976. R&D Systems, Minneapolis, MN). Cell lysates were harvested. Anti-pAkt (dilution ratio 1:1000, #9102; Cell Signaling), anti-Akt (dilution ratio 1:1000, #4370; Cell Signaling), and anti-β actin antibodies (dilution ratio 1:10,000, STJ91464, St John's laboratory, UK) were used. […] HCSLC2.

[5] = test system: Human CD11b+bone marrow myeloid cells; assay: two-chamber in vitro model of bone metastasis, cell migration; assay type: cell-based; conditions: FIG. 8B
Experimental: In some embodiments, the CXCL16 antibodies disclosed herein inhibit bone metastasis of cancer cells. The antibodies activity in inhibiting bone metastasis is assessed with methods well-known in the art. One exemplary method uses a two-chamber system mimicking the metastatic niche of bone. In brief, an upper chamber, which is a mesh insert, is suspended within a lower chamber. The lower chamber contains cancer cells/whole marrow cell co-cultures and CXCL16 enriched fluid, mimicking the microenvironment of the metastatic niche of bone. The upper chamber harbors pre-osteoclasts from the bone marrow (for example, Human CD11b+bone marrow myeloid cells). Typically, pre-osteoclasts differentiate into osteoclasts, which support tumor formation in the metastatic niche of the bone. Inhibiting pre-osteoclasts migration thus could effectively block tumor progression in the metastatic niche of the bone, i.e., inhibiting bone metastasis. After contacting the cells in the upper chamber with the CXCL16 antibody, cells retained in the upper chamber (aka, the mesh of the insert) are counted; the number of these cells positively correlates with the ability of the antibodto inhibitng cell recruitment into the metastatic niche:
A two-chamber system was set up to resemble the metastatic niche of bone. A lower chamber contains a conditioned medium (CM) of cancer cells/whole marrow cell co-cultures (called co-CM), which is CXCL16 enriched. CM from cancer cell cultures alone is used for control, referred to as single-CM. Single-CM contains negligible concentrations of CXCL16. An upper chamber (using insert) harboring cells that can be recruited into the metastatic chambers. Human CD11b+bone marrow myeloid cells were treated with the CXCL16 antibodies for one hour, and the treated cells were added to upper chamber. After 4 hr, the insert (aka. the upper chamber) was harvested and cells in the insert were stained and the ability of the CXCL16 antibody in inhibiting cell recruitment into the metastatic niche were assessed.

[6] = antibody captured on biosensor, rhCXCL16 100 nM, 25° C., ND = signal was not detectable

B1: HC5LC5: humanized CXCL16 antibody, VH SEQ ID NO: 5, VL SEQ ID NO: 10; heavy chain SEQ ID NO: 42, light chain SEQ ID NO: 47 (antibody)
heavy: EVQLVESGGGLVQPGGSLKLSCAASGFTFSNAVMNWVRQASGKGLEWVARIRTKPNNYATFYADSVKGRFTFSRDDSKNTAYLQMNSLKTEDTAMYYCTAWTTEGIYWGQGTLVTVSS[human IgG1 constant region left out]
light: DIVMTQSPSSLAVSAGERATINCKSSQSLLYSGNQKNYLAWYQQKPGQSPKLLIYWASTRQSGVPDRFIGSGSGTDFTLTISSLQAEDVAIYYCQQYYDTPWTFGGGTKLELKRTVAAPSVFIFPPSDEQLKSGTASVVCLLNNFYPREAKVQWKVDNALQSGNSQESVTEQDSKDSTYSLSSTLTLSKADYEKHKVYACEVTHQGLSSPVTKSFNRGEC
cell migration into the lower chamber of BHP10-3M cells [1]: decreased the migration | migration of CXCR6-overexpressed CHO-K1 cell from upper chamber to the lower chamber [2]: inhibited the migration | binding affinity to human CXCL16 (ELISA) [3]: significantly higher than a control IgG antibody | ka [4, 6]: 1.82E+04 m^−1s^−1 | kd [4, 6]: <1e-07 s⁻¹ | binding to human CXCL16 ([4]; in words): strong binding | Akt phosphorylation activated by rhCXCL16 (Akt phosphorylation): abrogate the Akt phosphorylation | chemotaxis and migration (migration of CD11b+ cells) [5]: inhibits chemotaxis and migration
